Data from paper PMC2172712 (The Journal of Cell Biology, 2003).

Biological target: His-tagged full-length Hrs (hepatocyte responsive serum phosphoprotein) (rat, UniProt Q9JJ50 1-776)
Experiment: co-sedimentation

Chain of UniProt Q9JJ50 (Q9JJ50 whole entry): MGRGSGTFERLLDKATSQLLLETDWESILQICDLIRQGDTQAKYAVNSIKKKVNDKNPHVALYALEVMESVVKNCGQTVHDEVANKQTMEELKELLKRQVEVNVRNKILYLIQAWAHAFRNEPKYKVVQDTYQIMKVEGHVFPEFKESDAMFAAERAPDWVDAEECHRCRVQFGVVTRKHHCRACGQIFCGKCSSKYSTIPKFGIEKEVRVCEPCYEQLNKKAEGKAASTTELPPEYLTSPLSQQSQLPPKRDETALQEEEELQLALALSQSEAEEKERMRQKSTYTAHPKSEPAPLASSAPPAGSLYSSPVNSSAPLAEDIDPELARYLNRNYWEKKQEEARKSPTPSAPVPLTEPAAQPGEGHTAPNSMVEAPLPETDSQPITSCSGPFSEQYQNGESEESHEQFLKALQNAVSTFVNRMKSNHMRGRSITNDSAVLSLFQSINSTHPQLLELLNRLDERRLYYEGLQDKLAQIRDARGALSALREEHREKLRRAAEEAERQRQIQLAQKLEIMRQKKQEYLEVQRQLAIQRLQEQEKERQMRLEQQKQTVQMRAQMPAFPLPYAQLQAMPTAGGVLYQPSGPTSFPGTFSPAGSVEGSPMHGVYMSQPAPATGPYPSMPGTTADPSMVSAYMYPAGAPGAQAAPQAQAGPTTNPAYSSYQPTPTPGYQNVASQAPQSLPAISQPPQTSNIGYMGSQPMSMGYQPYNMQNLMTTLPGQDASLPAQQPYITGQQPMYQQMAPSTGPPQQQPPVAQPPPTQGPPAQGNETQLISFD

binding result: binds
B1: SNAP-25([…]) (domain or fragment)
chain: not shown
